# Measurements taken from US20150071942A1, “COMBINATION THERAPY OF ANTI-MIF ANTIBODIES AND CHEMOTHERAPEUTICS” (Baxter Healthcare SA, priority 2012, published 2015).
# T1: oxMIF (Homo sapiens, UniProt P14174)
# T1 sequence (P14174 2-115 limits assumed): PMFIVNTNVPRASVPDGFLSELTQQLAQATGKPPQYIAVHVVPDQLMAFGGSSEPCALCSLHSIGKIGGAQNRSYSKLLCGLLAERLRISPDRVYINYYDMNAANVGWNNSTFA
# T2: redMIF (Homo sapiens, UniProt P14174)
# T2 sequence (P14174 1-115): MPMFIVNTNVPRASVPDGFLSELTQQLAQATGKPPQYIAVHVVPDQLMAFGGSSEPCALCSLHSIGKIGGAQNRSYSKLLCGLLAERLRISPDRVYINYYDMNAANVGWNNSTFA
# B1: RAB9: anti-MIF antibody, IgG4 heavy chain SEQ ID NO: 5, light chain SEQ ID NO: 1; DSM 25113/25111 (antibody)
# heavy: EVQLLESGGGLVQPGGSLRLSCAASGFTFSIYSMNWVRQAPGKGLEWVSSIGSSGGTTYYADSVKGRFTISRDNSKNTLYLQMNSLRAEDTAVYYCAGSQWLYGMDVWGQGTTVTVSSASTKGPSVFPLAPCSRSTSESTAALGCLVKDYFPEPVTVSWNSGALTSGVHTFPAVLQSSGLYSLSSVVTVPSSSLGTKTYTCNVDHKPSNTKVDKRV[here human IgG4 Fc with S228P (EU numbers) without letters]
# light: DIQMTQSPSSLSASVGDRVTITCRSSQRIMTYLNWYQQKPGKAPKLLIFVASHSQSGVPSRFRGSGSETDFTLTISGLQPEDSATYYCQQSFWTPLTFGGGTKVEIKRTVAAPSVFIFPPSDEQLKSGTASVVCLLNNFYPREAKVQWKVDNALQSGNSQESVTEQDSKDSTYSLSSTLTLSKADYEKHKVYACEVTHQGLSSPVTKSFNRGEC
# modifications: Heavy chain of RAB9; Light chain of RAB9
# B2: RAB4: anti-MIF antibody, IgG4 heavy chain SEQ ID NO: 6, light chain SEQ ID NO: 2; DSM 25112/25110 (antibody)
# heavy: EVQLLESGGGLVQPGGSLRLSCAASGFTFSIYAMDWVRQAPGKGLEWVSGIVPSGGFTKYADSVKGRFTISRDNSKNTLYLQMNSLRAEDTAVYYCARVNVIAVAGTGYYYYGMDVWGQGTTVTVSSASTKGPSVFPLAPCSRSTSESTAALGCLVKDYFPEPVTVSWNSGALTSGVHTFPAVLQSSGLYSLSSVVTVPSSSLGTKTYTCNVDHKPSNTKVDKRV[here human IgG4 Fc with S228P (EU numbers) without letters]
# light: DIQMTQSPGTLSLSPGERATLSCRASQGVSSSSLAWYQQKPGQAPRLLIYGTSSRATGIPDRFSGSASGTDFTLTISRLQPEDFAVYYCQQYGRSLTFGGGTKVEIKRTVAAPSVFIFPPSDEQLKSGTASVVCLLNNFYPREAKVQWKVDNALQSGNSQESVTEQDSKDSTYSLSSTLTLSKADYEKHKVYACEVTHQGLSSPVTKSFNRGEC
# modifications: Heavy chain of RAB4; Light chain of RAB4
# B3: RAB0: anti-MIF antibody, IgG4 heavy chain SEQ ID NO: 7, light chain SEQ ID NO: 3; DSM 25115/25114 (antibody)
# heavy: B2 heavy with I31W, V52Y, F57R
# light: B2 light
# modifications: Heavy chain of RAB0; Light chain of RAB0
# B4: RAM4: anti-MIF (anti-oxMIF) antibody; heavy chain SEQ ID NO: 13, light chain SEQ ID NO: 14; DSM 25862/25861 (antibody)
# heavy: EVQLLESGGGLVQPGGSLRLSCAASGFTFSIYAMDWVRQAPGKGLEWVSGIVPSGGFTKYADSVKGRFTISRDNSKNTLYLQMNSLRAEDTAVYYCARVNVIAVAGTGYYYYGMDVWGQGTTVTVSSASTKGPSVFPLAPSSKSTSGGTAALGCLVKDYFPEPVTVSWNSGALTSGVHTFPAVLQSSGLYSLSSVVTVPSSSLGTQTYICNVNHKPSNTKVDKRV[here human IgG1 Fc without letters]
# light: B2 light
# modifications: RAM4hc; RAM4lc
# notes: anti-MIF (anti-oxMIF) antibody; DSM 25862/25861
# Assays:
# [1] = biological target: T1, oxMIF; experiment: Differential binding of the antibodies to oxMIF (ELISA or Biacore)
# Description: (§1) The anti-oxMIF antibodies described in this invention are able to discriminate between ox and red MIF, which are generated by mild oxidation or reduction, respectively. The anti-oxMIF antibodies are useful to specifically detect oxMIF. Discrimination between these conformers is assessed by ELISA or surface plasmon resonance. Both techniques can be performed as well known to a person skilled in the art and as described below.
# (§2) The antibodies were coated on a CM5 (=carboxymethylated dextran) chip and recombinant MIF protein, pre-incubated with 0.2% Proclin300, were injected. (Proclin300 consists of oxidative isothiazolones that stabilize the oxMIF structure).
# (§3) The antibodies of the invention, as defined hereinabove and hereinafter, have the same specificities. They thus also show similar results in the experiments as carried out by the present inventors.
# [2] = biological target: T2, redMIF; experiment: Differential binding of the antibodies to redMIF (ELISA or Biacore); conditions: for binding of recombinant MIF proteins to coated antibody: Biacore 3000, native HBS-EP buffer without addition of ProClin300; for binding to redMIF: MIF in its reduced state
# Description: as §1, §2, §3
Molecule,binding to oxMIF [1],binding of recombinant MIF proteins to coated antibody [2],binding to redMIF [2]
B1,specifically bind to oxMIF,none of the recombinant MIF proteins bound,do not bind; also recorded: incapable of binding to redMIF
B2,specifically bind to oxMIF,,do not bind; also recorded: incapable of binding to redMIF
B3,specifically bind to oxMIF,none of the recombinant MIF proteins bound,do not bind; also recorded: incapable of binding to redMIF
B4,specifically bind to oxMIF,,incapable of binding to redMIF

# Changes are numbered by the printed parent chain. Entries after “also recorded” stand apart in the source; their conditions may differ.
